{
  "source": "PubChem BioAssay (Tox21)",
  "key": {"[1]": {"test": "qHTS assay to identify small molecule agonists of the constitutive androstane receptor (CAR) signaling pathway - cell viability counter screen (AID 1224836); further: nearly all actives have a fitted effect of over 45% in size", "procedure,_shortened": "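23 h treatment, 37 C, 5% CO2. Cell line: HepG2 stably expressing hCAR with a CYP2B6-2.2kb construct. Co-treatment: PK11195, 0.75 uM final. Read-out: CellTiter-Fluor fluorescence intensity.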"}, "[2]": {"test": "qHTS assay to identify small molecule antagonists of the constitutive androstane receptor (CAR) signaling pathway - cell viability counter screen (AID 1224837); further: nearly all actives have a fitted effect of over 45% in size", "procedure,_shortened": "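In quantitative HTS format, compounds at 15 concentrations were applied to HepG2 cells double-transfected with hCAR and CYP2B6-2.2kb under 50 nM CITCO stimulation; live-cell protease activity was read after 23 hr via CellTiter-Fluor.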"}, "[3]": {"target": "Nuclear receptor subfamily 1 group I member 3 (Homo sapiens) (UniProt Q14994)", "sequence (Q14994 whole entry, looked up)": "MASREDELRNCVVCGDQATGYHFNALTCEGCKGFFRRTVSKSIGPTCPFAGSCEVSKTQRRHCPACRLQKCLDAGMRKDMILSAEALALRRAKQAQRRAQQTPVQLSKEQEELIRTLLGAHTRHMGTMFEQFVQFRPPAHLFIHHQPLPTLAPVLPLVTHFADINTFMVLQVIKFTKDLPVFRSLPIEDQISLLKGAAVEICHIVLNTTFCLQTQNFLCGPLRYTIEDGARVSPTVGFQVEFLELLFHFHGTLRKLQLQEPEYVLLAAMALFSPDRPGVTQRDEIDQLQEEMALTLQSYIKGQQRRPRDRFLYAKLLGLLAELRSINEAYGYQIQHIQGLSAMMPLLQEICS", "test": "qHTS assay to identify small molecule agonists of the constitutive androstane receptor (CAR) signaling pathway (AID 1224839); further: nearly all actives have a fitted effect of over 15% in size; on activation: on the % scale 0 is the no-effect control and ±100 the full control effect", "procedure,_shortened": "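Compounds tested at 15 concentrations on HepG2 cells stably harbouring hCAR and CYP2B6-2.2kb reporter constructs, co-treated with PK11195 (0.75 uM final), 24 h at 37 C; luminescent reporter signal quantified.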"}, "[4]": {"test": "qHTS assay to identify small molecule antagonists of the estrogen related receptor signaling pathway with the pleiotropic PPARgamma coactivator (PGC) from Tox21 10K library - cell viability counter screen (AID 1224840; active means well fitted cell-killing curve with a large enough effect in the repeat runs, not every such curve was filed as active; inconclusive means weak or mixed curves, or effect the other way; inactive means no such curve, though single readings can be large or run the other way; further: nearly all actives have a fitted effect of over 40% in size)", "procedure,_shortened": "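Viability counter screen, PGC/ERR cells: 17.5 h compound exposure at 37 C, CellTiter-Fluor fluorescence endpoint.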"}, "[5]": {"target": "Nuclear receptor subfamily 1 group I member 3 (Homo sapiens) (UniProt Q14994)", "test": "qHTS assay to identify small molecule antagonists of the constitutive androstane receptor (CAR) signaling pathway (AID 1224838); further: nearly all actives have a fitted effect of over 40% in size", "procedure,_shortened": "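CITCO-stimulated (50 nM final) HepG2 cells stably transfected with hCAR and CYP2B6-2.2kb luciferase were exposed to compounds at 15 concentrations for 24 h at 37 C/5% CO2. A luciferase reagent was added and luminescence recorded after 30 min.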"}, "[6]": {"test": "qHTS assay to identify small molecule agonists of H2AX (AID 1224845; active means well fitted activation curve with a large enough effect in the signal ratio in the repeat runs, not every such curve was filed as active; inconclusive means weak or mixed curves; the % refers to the signal ratio)", "details": "CHO-K1 phospho-H2AX Ser139 HTRF, 3 h; activation (H2AX phosphorylation): at 154 µM (top of the series) unless noted", "procedure,_shortened": "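Wild-type CHO-K1 cells, plated overnight, exposed 3hr at 37C to 15 concentrations (0.76% DMSO final). Lysed, then HTRF anti-pH2AX (S139) cryptate and anti-H2AX-d2 antibodies, 24 hr room temperature; 665/620 nm emission read.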"}, "[7]": {"test": "qHTS assay to identify small molecule agonists of the hypoxia (HIF-1) signaling pathway - cell viability counter screen (AID 1224844; calls by dose curve; further: nearly all actives have a fitted effect of over 50% in size)", "procedure,_shortened": "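Same wells as the HIF-1 reporter screen; ME-180 cells carrying HRE-bla, 17 hr treatment at 37C; CellTiter-Glo luminescence read after 30 min at room temperature.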"}, "[8]": {"target": "Thyrotropin receptor (Homo sapiens) (UniProt P16473)", "sequence (P16473 whole entry, looked up)": "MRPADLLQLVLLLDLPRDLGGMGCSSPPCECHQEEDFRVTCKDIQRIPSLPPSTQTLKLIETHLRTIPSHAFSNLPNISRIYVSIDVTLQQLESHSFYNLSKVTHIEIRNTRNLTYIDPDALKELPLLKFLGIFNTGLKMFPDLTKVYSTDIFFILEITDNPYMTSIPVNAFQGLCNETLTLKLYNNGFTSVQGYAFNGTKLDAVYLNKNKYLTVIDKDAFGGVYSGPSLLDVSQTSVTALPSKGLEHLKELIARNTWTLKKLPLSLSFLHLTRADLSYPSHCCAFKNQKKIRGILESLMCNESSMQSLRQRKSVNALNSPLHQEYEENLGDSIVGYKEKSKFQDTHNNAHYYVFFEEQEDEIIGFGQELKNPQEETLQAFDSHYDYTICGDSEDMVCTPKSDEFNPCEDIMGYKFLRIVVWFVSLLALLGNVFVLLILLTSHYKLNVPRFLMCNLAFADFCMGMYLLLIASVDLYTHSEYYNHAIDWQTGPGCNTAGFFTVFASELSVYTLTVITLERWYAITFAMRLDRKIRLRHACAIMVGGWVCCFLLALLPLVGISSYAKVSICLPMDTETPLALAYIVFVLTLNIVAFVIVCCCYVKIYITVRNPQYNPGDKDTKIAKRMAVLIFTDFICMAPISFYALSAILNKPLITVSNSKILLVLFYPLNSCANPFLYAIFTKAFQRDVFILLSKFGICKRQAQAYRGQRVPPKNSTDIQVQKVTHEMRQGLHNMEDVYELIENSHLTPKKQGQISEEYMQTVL", "test": "qHTS assay to identify small molecule agonists of the thyroid stimulating hormone receptor (TSHR) signaling pathway (AID 1224843; calls by dose curve; further: nearly all actives have a fitted effect of over 45% in size; on activation: on the % scale 0 is the no-effect control and ±100 the full control effect)", "details": "TSHR-HEK293 cells, cAMP HTRF, agonist mode, 30 min; activation: at 92.4 µM (top of the series) unless noted", "procedure,_shortened": "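HEK293/TSHR, 800 cells/well; cpd 30 min RT; add cAMP-d2 + anti-cAMP-cryptate, 1 h RT; fluorescence read on plate reader. 15-pt titration, n=3.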"}, "[9]": {"test": "qHTS assay to identify small molecule antagonists of the estrogen related receptor signaling pathway with the pleiotropic PPARgamma coactivator (PGC) from Tox21 10K library (AID 1224841; call rule not given here; further: actives are mostly falling curves and most rising ones were filed inactive; nearly all actives have a fitted effect of over 50% in size)", "procedure,_shortened": "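In the PGC/ERR line, DMSO solutions of test chemicals are pin-delivered to 2,000 cells/well six hours after dispensing. Following eighteen hours' incubation, One-Glo reagent is added and luminescence recorded.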"}},
  "note": "The inconclusive results got no clear call from the source; some entries with a clear call stand among them for comparison. For some of these results: Potencies of inconclusive entries are doubtful fits and often do not repeat. Activity calls are given as the source filed them. Unless noted, the call rests on the fitted dose curve; in most records, active means well fitted curve in the direction sought with a large enough effect in the repeat runs; inconclusive means weak or mixed curves; inactive means no such curve, though single readings can be large; an effect the other way counts as inactive or inconclusive. Potency means the concentration at half of the fitted maximal effect; tags describe the fitted curve by direction and shape or compound fluorescence and quenching.",
  "data": [
    {"smiles": "COc1ccc(-c2coc3cc(O)cc(O)c3c2=O)cc1", "values": [
      {"measurement": "Potency", "setting": "[1]", "result": "inconclusive: 69.1 µM [cytotoxic, single point]"}
    ]},
    {"smiles": "CCCCCC1Nc2cc(C(F)(F)F)c(S(N)(=O)=O)cc2S(=O)(=O)N1", "note": "(stereo not drawn)", "values": [
      {"measurement": "Potency", "setting": "[1]", "result": "inactive"}
    ]},
    {"smiles": "COc1ccc2c(c1OC)C(=O)O[C@@H]2[C@H]1c2c(cc3c(c2OC)OCO3)CCN1C", "values": [
      {"measurement": "Potency", "setting": "[1]", "result": "active: 8.41 µM"},
      {"measurement": "Potency", "setting": "[2]", "result": "active: 10.6 µM"},
      {"measurement": "Potency", "setting": "[3]", "result": "inconclusive: 23.7 µM [activator, partial curve, poor fit]"},
      {"measurement": "Potency", "setting": "[4]", "result": "inconclusive: 11.9 µM [cytotoxic, partial curve]"}
    ]},
    {"smiles": "CS(=O)(=O)c1ccc([C@@H](O)[C@@H](CF)NC(=O)C(Cl)Cl)cc1", "values": [
      {"measurement": "Potency", "setting": "[1]", "result": "inactive"},
      {"measurement": "Potency", "setting": "[2]", "result": "inactive"},
      {"measurement": "Potency", "setting": "[5]", "result": "inconclusive: 2.98 µM [inhibitor, single point]"}
    ]},
    {"smiles": "O=C(Nc1ccc(C(=O)O)c(O)c1)c1ccccc1", "values": [
      {"measurement": "Potency", "setting": "[1]", "result": "inconclusive: 13.3 µM [rising, single point]"}
    ]},
    {"smiles": "COC(=O)C1=C(C)NC(C)=C(C(=O)OC(C)(C)CN(C)CCC(c2ccccc2)c2ccccc2)C1c1cccc([N+](=O)[O-])c1", "note": "(stereo not drawn)", "values": [
      {"measurement": "Potency", "setting": "[1]", "result": "inconclusive: 21.1 µM [cytotoxic, partial curve]"},
      {"measurement": "Potency", "setting": "[2]", "result": "inconclusive: 21.1 µM [cytotoxic, partial curve]"},
      {"measurement": "Potency", "setting": "[3]", "result": "inactive"},
      {"measurement": "Potency", "setting": "[4]", "result": "inconclusive: 26.6 µM [cytotoxic, partial curve, poor fit]"},
      {"measurement": "Potency", "setting": "[6]", "result": "inconclusive: 49.2 µM [inhibitor]"}
    ]},
    {"smiles": "COc1nc(C)nc(NC(=O)NS(=O)(=O)c2ccccc2OCCCl)n1", "values": [
      {"measurement": "Potency", "setting": "[1]", "result": "inactive"}
    ]},
    {"smiles": "O=C(C(Cl)Cl)N1CCOC12CCCCC2", "values": [
      {"measurement": "Potency", "setting": "[1]", "result": "inconclusive: 54.5 µM [cytotoxic, partial curve]"},
      {"measurement": "Potency", "setting": "[2]", "result": "inconclusive: 27.3 µM [cytotoxic, partial curve]"},
      {"measurement": "Potency", "setting": "[3]", "result": "inconclusive: 48.6 µM [activator, partial curve]"}
    ]},
    {"smiles": "COc1ccc(CCN(C)CCCC(C#N)(c2cc(OC)c(OC)c(OC)c2)C(C)C)cc1OC", "note": "(stereo not drawn)", "values": [
      {"measurement": "Potency", "setting": "[1]", "result": "inconclusive: 18.8 µM [cytotoxic, partial curve]"},
      {"measurement": "Potency", "setting": "[2]", "result": "inconclusive: 29.8 µM [cytotoxic, partial curve]"}
    ]},
    {"smiles": "CC(=O)CCC1=C(C)CCCC1(C)C", "values": [
      {"measurement": "Potency", "setting": "[1]", "result": "inactive"}
    ]},
    {"smiles": "O=c1[nH]c2ccccc2n1CCCN1CCN(C(c2ccccc2)c2ccccc2)CC1", "values": [
      {"measurement": "Potency", "setting": "[1]", "result": "inconclusive: 29.8 µM [cytotoxic, partial curve]"},
      {"measurement": "Potency", "setting": "[2]", "result": "inconclusive: 26.6 µM [cytotoxic, partial curve]"},
      {"measurement": "Potency", "setting": "[5]", "result": "inconclusive: 26.6 µM [inhibitor, partial curve]"},
      {"measurement": "Potency", "setting": "[7]", "result": "inconclusive: 16.9 µM [cytotoxic, partial curve, poor fit]"},
      {"measurement": "Potency", "setting": "[6]", "result": "inconclusive: 61.9 µM [activator]"}
    ]},
    {"smiles": "O=CNNC=O", "values": [
      {"measurement": "Potency", "setting": "[1]", "result": "inactive"}
    ]},
    {"smiles": "O=C(CCCN1CCN(c2ccc(F)cc2)CC1)NC1c2ccccc2CSc2ccccc21", "note": "(stereo not drawn)", "values": [
      {"measurement": "Potency", "setting": "[1]", "result": "inconclusive: 29.8 µM [cytotoxic]"},
      {"measurement": "Potency", "setting": "[2]", "result": "inconclusive: 29.8 µM [cytotoxic, partial curve]"}
    ]},
    {"smiles": "CO[C@@H]1[C@@H](OC)[C@H](C)[C@@](O)(CC(=O)O)O[C@H]1[C@H](C)[C@H]1O[C@@]2(CC[C@@](C)([C@H]3CC[C@@](C)([C@@H]4O[C@@H]([C@H]5O[C@](C)(O)[C@H](C)C[C@@H]5C)C[C@@H]4OC4C[C@H](OC)[C@@H](OC)[C@H](C)O4)O3)O2)C[C@H](O)[C@H]1C", "note": "(stereo partly drawn)", "values": [
      {"measurement": "Potency", "setting": "[1]", "result": "active: 5.31 µM"},
      {"measurement": "Potency", "setting": "[2]", "result": "active: 4.73 µM"},
      {"measurement": "Potency", "setting": "[5]", "result": "active: 9.44 µM"},
      {"measurement": "activation", "setting": "[8]", "result": "inconclusive: -23.6% [at 42.5 µM]"},
      {"measurement": "Potency", "setting": "[7]", "result": "inconclusive: 5.35 µM [cytotoxic, full curve, poor fit]"}
    ]},
    {"smiles": "O=C(O)C1CCC1", "values": [
      {"measurement": "Potency", "setting": "[1]", "result": "inactive"}
    ]},
    {"smiles": "Cc1ccc(S(=O)(=O)C(I)I)cc1", "values": [
      {"measurement": "Potency", "setting": "[1]", "result": "active: 48.6 µM"},
      {"measurement": "Potency", "setting": "[2]", "result": "active: 34.4 µM"},
      {"measurement": "Potency", "setting": "[5]", "result": "active: 27.3 µM"},
      {"measurement": "Potency", "setting": "[9]", "result": "inconclusive: 68.6 µM [falling, single point]"},
      {"measurement": "Potency", "setting": "[8]", "result": "active: 3.06 µM"},
      {"measurement": "Potency", "setting": "[6]", "result": "active: 16 µM"}
    ]},
    {"smiles": "O=C(O)c1ccccc1", "values": [
      {"measurement": "Potency", "setting": "[1]", "result": "inconclusive: 57.2 µM [cytotoxic, partial curve]"},
      {"measurement": "Potency", "setting": "[2]", "result": "inconclusive: 45.4 µM [cytotoxic, partial curve]"},
      {"measurement": "Potency", "setting": "[5]", "result": "inconclusive: 22.8 µM [inhibitor, full curve, poor fit]"}
    ]},
    {"smiles": "O=C1C=CC(=O)N1c1cccc(N2C(=O)C=CC2=O)c1", "values": [
      {"measurement": "Potency", "setting": "[1]", "result": "active: 61.1 µM"},
      {"measurement": "Potency", "setting": "[2]", "result": "active: 61.1 µM"},
      {"measurement": "Potency", "setting": "[5]", "result": "active: 61.1 µM"},
      {"measurement": "Potency", "setting": "[9]", "result": "active: 77 µM"},
      {"measurement": "Potency", "setting": "[8]", "result": "active: 5.45 µM"},
      {"measurement": "Potency", "setting": "[7]", "result": "active: 11 µM"}
    ]},
    {"smiles": "O[C@@H](CNC[C@H](O)[C@H]1CCc2cc(F)ccc2O1)[C@@H]1CCc2cc(F)ccc2O1", "values": [
      {"measurement": "Potency", "setting": "[1]", "result": "inconclusive: 33.5 µM [cytotoxic, single point]"},
      {"measurement": "Potency", "setting": "[2]", "result": "inconclusive: 33.5 µM [cytotoxic, single point]"},
      {"measurement": "Potency", "setting": "[5]", "result": "inconclusive: 33.5 µM [inhibitor, single point]"},
      {"measurement": "Potency", "setting": "[3]", "result": "inactive"},
      {"measurement": "Potency", "setting": "[4]", "result": "inconclusive: 33.5 µM [cytotoxic, single point]"}
    ]},
    {"smiles": "Cc1cc([N+](=O)[O-])ccc1N", "values": [
      {"measurement": "Potency", "setting": "[1]", "result": "inconclusive: 47.9 µM [cytotoxic, partial curve]"},
      {"measurement": "Potency", "setting": "[2]", "result": "inconclusive: 47.9 µM [cytotoxic, partial curve]"}
    ]}
  ]
}
